Data from PubChem BioAssay AID1347165 (National Center for Advancing Translational Sciences (NCATS), 2019).
Where “and” joins values, the source holds several entries; their conditions need not be identical. Equal values may be shown once. The campaign covered roughly 220,000 compounds. About 5,700 (2.6%) were called active. The inconclusive results got no clear call from the source; some entries with a clear call stand among them for comparison. Calls follow the shape of the dose curve; as a rule, active = well fitted inhibition curve with a large enough effect; inconclusive = small, poorly fitted or top-dose-only effect; inactive = no such curve, though single readings can be large or run the other way. Where the call is inconclusive, the potency comes from a doubtful curve fit.

These compounds were tested against Lysine-specific demethylase 5B (Homo sapiens) (UniProt Q9UGL1) (assay: Primary screen for KDM5B Histone Demethylases FDH-coupled qHTS). Conditions: FDH-coupled NADH fluorescence (FDH is formaldehyde dehydrogenase); activity change, negative = inhibition: at 57.7 µM (top of the series) unless noted.
Method in brief: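 KDM5BΔAP (200 nM final) in 50 mM HEPES pH 7.5, 0.01% Tween-20 was preincubated 10 min at RT with compound over a concentration range. Substrate mix (H3K4me3 12.5 µM, α-KG 25 µM, Fe²⁺, ascorbate, NAD⁺, FDH) was added, and NADH fluorescence change over 30 min gave dose-response curves.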
Also: nearly all actives have a fitted effect of over 70% in size.
For activity change, negative = inhibition in this document: 0% is about no effect.
Potency is read from the fitted curve at half-maximal effect; tags tell the direction and shape of the fitted curve.

Chain of UniProt Q9UGL1 (Q9UGL1 whole entry, looked up): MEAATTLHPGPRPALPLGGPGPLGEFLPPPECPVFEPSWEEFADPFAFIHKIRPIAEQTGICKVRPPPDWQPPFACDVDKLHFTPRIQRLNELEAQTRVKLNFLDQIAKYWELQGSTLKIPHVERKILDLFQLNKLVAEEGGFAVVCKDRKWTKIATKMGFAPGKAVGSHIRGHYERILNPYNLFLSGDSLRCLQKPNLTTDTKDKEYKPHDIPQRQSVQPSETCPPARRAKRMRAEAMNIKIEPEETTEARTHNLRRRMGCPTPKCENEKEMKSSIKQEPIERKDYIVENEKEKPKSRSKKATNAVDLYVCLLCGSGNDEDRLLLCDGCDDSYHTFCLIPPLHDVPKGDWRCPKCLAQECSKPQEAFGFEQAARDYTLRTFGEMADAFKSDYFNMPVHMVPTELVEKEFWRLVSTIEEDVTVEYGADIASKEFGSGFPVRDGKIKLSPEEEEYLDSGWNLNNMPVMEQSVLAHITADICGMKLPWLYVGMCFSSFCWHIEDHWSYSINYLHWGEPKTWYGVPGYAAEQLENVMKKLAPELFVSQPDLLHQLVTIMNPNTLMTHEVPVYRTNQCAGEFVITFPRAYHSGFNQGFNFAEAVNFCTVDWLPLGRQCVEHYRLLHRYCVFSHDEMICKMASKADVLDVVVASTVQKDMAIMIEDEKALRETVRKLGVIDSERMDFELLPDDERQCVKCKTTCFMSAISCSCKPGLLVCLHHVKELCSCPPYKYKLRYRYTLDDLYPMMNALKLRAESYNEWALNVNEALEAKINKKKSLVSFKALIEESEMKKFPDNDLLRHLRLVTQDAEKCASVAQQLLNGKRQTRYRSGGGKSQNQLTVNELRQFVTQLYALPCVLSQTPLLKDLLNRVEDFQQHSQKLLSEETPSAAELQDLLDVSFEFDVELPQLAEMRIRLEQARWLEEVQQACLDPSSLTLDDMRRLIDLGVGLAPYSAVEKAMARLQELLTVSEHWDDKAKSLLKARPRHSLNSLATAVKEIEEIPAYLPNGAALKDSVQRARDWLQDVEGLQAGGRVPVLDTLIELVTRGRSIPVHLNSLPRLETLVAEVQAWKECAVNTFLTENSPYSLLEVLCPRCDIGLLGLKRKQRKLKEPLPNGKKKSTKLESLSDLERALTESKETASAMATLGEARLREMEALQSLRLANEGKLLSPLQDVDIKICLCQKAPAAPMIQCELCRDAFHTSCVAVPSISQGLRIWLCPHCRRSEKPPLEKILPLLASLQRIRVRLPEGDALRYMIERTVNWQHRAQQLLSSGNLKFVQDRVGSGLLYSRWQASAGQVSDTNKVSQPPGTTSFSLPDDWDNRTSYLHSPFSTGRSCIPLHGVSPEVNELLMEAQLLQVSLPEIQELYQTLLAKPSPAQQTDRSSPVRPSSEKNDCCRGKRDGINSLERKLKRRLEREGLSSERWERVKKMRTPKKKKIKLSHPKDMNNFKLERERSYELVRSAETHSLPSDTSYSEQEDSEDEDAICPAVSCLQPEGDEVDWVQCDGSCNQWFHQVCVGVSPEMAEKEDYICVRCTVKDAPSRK

Row | SMILES | Potency | activity change, negative = inhibition
1 | COc1ccc(-c2cc(C[C@H]3CNCC[C@H]3CC(=O)NCc3cccs3)no2)cc1 | inconclusive: 14.1 µM [inhibitor, partial curve, poor fit] | –
2 | COCCNC(=O)c1cc2cc(S(=O)(=O)N(C)C)ccc2n1C | inactive | –
3 | CN1[C@@H](CCC(=O)N2CCN(c3ccccc3)CC2)CNC(=O)[C@@H]2[C@H]1CCN2Cc1ccccc1 | inconclusive: 28.2 µM [inhibitor, single point] | –
4 | CCCNC(=O)C1CCCN1S(=O)(=O)c1ccc(Br)s1 (centres undefined) | inactive | –
5 | COC(=O)CCN(C(=O)C1CCN(S(=O)(=O)c2c(C)noc2/C=C/c2ccccc2F)CC1)c1ccccc1 | inconclusive: 1.41 µM [inhibitor, partial curve, poor fit] | –
6 | CN(C)c1cccc(C(=O)N2CCC3(CC2)NC(=O)N(c2cccc(Cl)c2)N3)c1 | inconclusive: 20 µM [inhibitor, single point] | –
7 | O=C(NCC1CN(CC2CC2)CC12CN(c1ccccc1)C2)Nc1ccccc1 (centres undefined) | inconclusive: 35.5 µM [inhibitor, single point] | –
8 | Cc1oc2c(c1C(=O)NC1CCCC1)CN(Cc1ccc(F)cc1)CC2 | inconclusive: 20 µM [inhibitor, partial curve, poor fit] | –
9 | Cc1sc2ncnc(N3CCC(C(=O)Nc4ccc(Cl)c(Cl)c4)CC3)c2c1C | inconclusive: 28.2 µM [inhibitor, partial curve, poor fit] | –
10 | COc1ccc(S(=O)(=O)N2CCc3c(C(=O)NCc4ccncc4)cccc32)cc1 | inconclusive: 25.1 µM [inhibitor, single point] | –
11 | O=C(c1cc2ccccc2[nH]1)N1CCC2(CC1)CN(c1ncccn1)CC2CO (centres undefined) | inconclusive: 20 µM [inhibitor, single point] | –
12 | O=C(Nc1nnc(-c2ccc(Cl)cc2)o1)Nc1ccccc1F | inconclusive: 28.2 µM [inhibitor, single point] | –
13 | CCC1=C(C(=O)OC)C(c2ccc(OC)cc2OC)N2C(CC(=O)NC3CC3)=CSC2=N1 (centres undefined) | inactive | –
14 | CCOc1ccc2c(c1)c(=O)c(S(=O)(=O)c1ccc(Cl)cc1)cn2Cc1ccccc1C | inconclusive: 2.24 µM [inhibitor, full curve, poor fit] | –
15 | COc1cc(CC2CC(c3cccc(Cl)c3)=NO2)c(OC)c2c1OCO2 (centres undefined) | inactive | –
16 | Cc1ccccc1OCc1ccc(-c2nc(C#N)c(N3CCC(C(N)=O)CC3)o2)o1 | inconclusive: 31.6 µM [inhibitor, partial curve, poor fit] and inconclusive: 20 µM [inhibitor, partial curve, poor fit] | –
17 | O=C(CCc1ccc(O)cc1)NNC(=S)NCCc1ccccc1 | inactive | –
18 | N#Cc1cccc(/C=C/C(=O)c2cccs2)c1 | inconclusive: 39.8 µM [inhibitor, single point] | –
19 | Cc1cccc(C(=O)NNC(=S)NC(=O)c2cccs2)c1 | inconclusive: 39.8 µM [inhibitor, single point] | –
20 | CN(C)C[C@@H]1CN(c2ccccn2)C[C@H]1NC(=O)CCn1cccn1 | inconclusive: 25.1 µM [inhibitor, partial curve, poor fit] | –
21 | Cc1cc(C)cc(C(=O)N2CCC3(CC2)N=C(c2ccc(Cl)cc2)NO3)c1 | inconclusive: 11.2 µM [inhibitor, partial curve, poor fit] | –
22 | CNC(=O)NC[C@H]1CCN(Cc2ccccc2C#N)C[C@H]1N(C)C | inactive | –

Row | SMILES | Potency | activity change, negative = inhibition
23 | COC(=O)COc1ccc2c(C)c(C)c(=O)oc2c1C | inconclusive: 2 µM [inhibitor, full curve, poor fit] | –
24 | CSc1ccc(CN(C)C(=O)c2cc(F)cc(F)c2)cc1 | inactive | –
25 | Cc1cn2nc(C(=O)Nc3ccc(C)c(F)c3)cc2c(N2CCSCC2)n1 | active: 25.1 µM | –
26 | CCOc1ccc(Br)cc1C(=O)Oc1ccc(C)cc1Br | inactive | –
27 | Cc1cc(C)c(S(=O)(=O)NCCc2csc3nc(-c4ccc(Cl)cc4)nn23)c(C)c1 | – | inconclusive: -30.5% [inhibitor]
28 | CN(C(=O)CSc1nc2nc[nH]c2c(=O)[nH]1)c1ccc(F)cc1 | inactive | –
29 | CCCC(=O)Nc1ccc2oc(-c3cc(F)c(F)cc3Cl)nc2c1 | inconclusive: 1.78 µM [inhibitor, full curve, poor fit] | –
30 | O=C(NCCCN1CCCC1=O)c1ccc(-c2ccc(N3CCSCC3)nc2)cc1 | inactive | –
31 | Cc1ccc(NC(=O)c2sc3ncnc(N(C)C4CCCCC4)c3c2C)cc1 | inconclusive: 25.1 µM [inhibitor, single point] | –
32 | Cc1ccc(C)c(N2CCN(c3nc4ccccc4c(=O)n3-c3ccccc3)CC2)c1 | inconclusive: 1.26 µM [inhibitor, full curve, poor fit] | –
33 | O=C1NCCCCCN(C(=O)Nc2ccccc2F)[C@H]2CCC[C@@H]12 | inactive | –
34 | CC1=C(C(=O)N2CCOCC2)C(c2cccc(F)c2)NC(=O)N1Cc1ccccc1 (centres undefined) | inactive | –
35 | COc1cccc(C(=O)Nc2ccc(S(=O)(=O)N(Cc3ccccc3)c3ccccc3)cc2)c1 | inconclusive: 25.1 µM [inhibitor, partial curve, poor fit] | –
36 | CN1c2cc(C(=O)NCc3ccc(F)cc3F)ccc2C(=O)N2CCCC21 (centres undefined) | inconclusive: 25.1 µM [inhibitor, partial curve, poor fit] | –
37 | O=C(O)c1cc(Cl)c(I)c(Cl)c1 | inactive | –
38 | Cc1nc2c(OCC(=O)OC(C)(C)C)cccn2c(=O)c1-c1cc(C)n(-c2cccc(F)c2)n1 | inconclusive: 15.8 µM [inhibitor, partial curve, poor fit] | –
39 | CC(C)Oc1ccc(CNC(=O)Cn2c(-c3cccs3)cc3ccccc32)cc1 | inconclusive: 31.6 µM [inhibitor, partial curve, poor fit] | –
40 | C=Cc1ccc(Cn2ccn(-c3ccc(F)c(F)c3)c(=O)c2=O)cc1 | inconclusive: 39.8 µM [inhibitor, single point] | –
41 | COc1cccc([C@H]2CN(C(=O)c3c(C)nn4c(C)cc(C)nc34)C[C@@H]2N)c1 | active: 28.2 µM | –
42 | Cc1ccc(C)c(C(=O)c2ccccc2)c1 | inactive | –
43 | COc1ccc(CCN2C(=O)c3[nH]nc(-c4ccccc4O)c3C2c2ccccc2)cc1 (centres undefined) | inactive | –
44 | Cc1ccccc1N1Cc2c(NCC(C)C)ncnc2N(C)CC1=O | inconclusive: 56.2 µM [inhibitor, partial curve, poor fit] | –

Row | SMILES | Potency | activity change, negative = inhibition
45 | CN(Cc1cccnc1)C(=O)CC1C(=O)NCCN1Cc1ccc(-c2ccccc2)cc1 (centres undefined) | inactive | –
46 | Nc1nccnc1C(=O)NCc1ccc(COCC(F)(F)F)cc1 | inconclusive: 20 µM [inhibitor, partial curve, poor fit] | –
47 | COc1ccc(CNC(=O)c2ccc(Cn3ccn4nc5c(c4c3=O)CCCC5)cc2)cc1 | inconclusive: 31.6 µM [inhibitor, single point] | –
48 | CCOC(=O)C1=C(c2ccccc2)NC(=S)NC1c1ccc(Cl)cc1 (centres undefined) | inconclusive: 10 µM [inhibitor, full curve, poor fit] | –
49 | CCC(=O)Nc1ccccc1-c1nc2ccccc2n(C(CC)C(=O)Nc2cccc(Cl)c2)c1=O (centres undefined) | inconclusive: 25.1 µM [inhibitor, single point] | –
50 | Cc1nnc([C@@H]2CC(F)(F)CN2C(=O)c2cccc3[nH]ccc23)o1 | active: 28.2 µM | –
51 | O=S1(=O)c2c(NCc3ccco3)cccc2Oc2ccccc2CN1Cc1cn(Cc2ccc(C(F)(F)F)cc2)nn1 | inconclusive: 28.2 µM [inhibitor, single point] | –
52 | CCOc1ccc(-c2cc3nc(C4CCN(C(=O)OC(C)(C)C)CC4)c(C(=O)Nc4c(C)cccc4C)cn3n2)cc1 | inconclusive: 28.2 µM [inhibitor, partial curve, poor fit] | –
53 | O=S(=O)(c1ccccc1)c1nc(-c2cccc(Cl)c2)oc1N1CCOCC1 | inconclusive: 28.2 µM [inhibitor, single point] | –
54 | O=C(Cc1cccc(F)c1)NCCn1cccc1-c1nc(-c2ccc3c(c2)OCO3)no1 | inconclusive: 39.8 µM [inhibitor, partial curve, poor fit] | –
55 | COc1cccc(C(=O)/C(=C/c2ccncc2)c2nc3ccccc3o2)c1 | inconclusive: 14.1 µM [inhibitor, partial curve, poor fit] | –
56 | FC(F)(F)C1CN(c2ccnc3ccc(Cl)cc23)CCO1 (centres undefined) | inactive | –
57 | CCS(=O)(=O)NCc1nc(-c2ccc(C)cc2)c(-c2ccccn2)[nH]1 | inconclusive: 39.8 µM [inhibitor, single point] | –
58 | CSc1nnc(NC(=O)c2cc(=O)c3ccccc3o2)s1 | inactive | –
59 | CCN(CCCNC(=O)c1ccc(Sc2ccc(Cl)cc2)c(NC(C)=O)c1)c1ccccc1 | inconclusive: 7.08 µM [inhibitor, partial curve, poor fit] | –
60 | O=C(c1cccs1)N(Cc1cccnc1)c1nc2c(F)cc(F)cc2s1 | inconclusive: 14.1 µM [inhibitor, partial curve, poor fit] | –
61 | COc1ccc2cc(CNc3ccc(C)cc3)c(=O)n(CC(=O)Nc3cccc(Cl)c3C)c2c1 | inconclusive: 2.51 µM [inhibitor, full curve, poor fit] | –
62 | Cc1c(O)ccc2c(CN3CCN(c4ccccc4F)CC3)cc(=O)oc12 | inconclusive: 14.1 µM [inhibitor, partial curve, poor fit] | –
63 | CC(C)(C)c1ccc(C(=O)N(Cc2ccc(F)cc2)Cc2ccco2)cc1 | inconclusive: 17.8 µM [inhibitor, partial curve, poor fit] | –
64 | Cc1cc(C)cc(C(=O)NCc2nnc3c(-c4nc(C5CC5)no4)cccn23)c1 | inconclusive: 28.2 µM [inhibitor, partial curve, poor fit] | –
